Laboratory results as given in PubChem BioAssay AID624417 (National Center for Advancing Translational Sciences (NCATS), 2012).
The whole screen tested about 410,000 compounds, of which about 6,400 (1.6%) were called active. Inconclusive means that the source gave no clear call. Such entries were picked first, then a sample of the others. The call rests on the fitted dose curve; in most records, active means well fitted inhibition curve with a large enough effect; inconclusive means small, poorly fitted or top-dose-only effect; inactive means no such curve, though single readings can be large or run the other way. Potencies of inconclusive entries are left out as doubtful fits.

target: Glucagon-like peptide 1 receptor (Homo sapiens) (UniProt P43220); assay: qHTS of GLP-1 Receptor Inverse Agonists (Inhibition Mode); conditions: HEK293 GLP-1R CRE-luciferase, luminescence, 24 h, GLP-1R form is constitutively active; activity change, negative = inhibition: at 38.3 µM (top of the series) unless noted; further: nearly all actives have a fitted effect of over 55% in size
UniProt P43220, sequence (P43220 whole entry, looked up): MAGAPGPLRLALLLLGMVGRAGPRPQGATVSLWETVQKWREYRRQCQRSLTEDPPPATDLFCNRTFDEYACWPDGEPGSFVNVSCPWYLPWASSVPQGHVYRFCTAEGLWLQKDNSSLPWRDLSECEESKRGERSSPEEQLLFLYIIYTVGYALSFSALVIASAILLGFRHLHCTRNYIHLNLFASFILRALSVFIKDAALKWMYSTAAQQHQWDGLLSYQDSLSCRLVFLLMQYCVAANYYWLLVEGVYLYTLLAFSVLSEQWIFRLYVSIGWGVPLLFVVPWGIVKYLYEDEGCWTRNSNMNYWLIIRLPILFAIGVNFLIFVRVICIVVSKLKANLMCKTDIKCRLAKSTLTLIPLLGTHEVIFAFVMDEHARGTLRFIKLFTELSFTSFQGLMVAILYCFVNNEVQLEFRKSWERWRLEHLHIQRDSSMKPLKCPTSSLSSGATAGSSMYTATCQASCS
Outline: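 Readout was luciferase luminescence, measured 12 min after detection reagent at room temperature. Beforehand, GLP-1R reporter HEK293 cells had sat 12 h, then received compounds for 24 hr at 37 deg C.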
On the % scale 0 is the no-effect control and ±100 the full control effect; potency means the concentration at half of the fitted maximal effect; tags describe the fitted curve by direction and shape.

Q: How did the Potency turn out when `Cc1ccc2c(=O)c(C(=O)c3cccc(Cl)c3)cn(CC(=O)Nc3ccc4c(c3)OCCO4)c2n1` was run?
A: Its Potency is inconclusive [inhibitor, single point].

Q: `COc1ccc(-c2oc(NC(C)=O)c(C#N)c2-c2ccc(OC)cc2)cc1` was tested. Which Potency did it give?
A: The Potency was inconclusive [inhibitor, partial curve, poor fit].

Q: For `COc1ccc(CCNC(=O)c2cccc(S(=O)(=O)N3CCCCCC3)c2)cc1`, which Potency is on record?
A: Its Potency is inconclusive [inhibitor, partial curve, poor fit].

Q: With `S=C(c1ccc(-c2ccc(Cl)cc2)o1)N1CCCCC1` as the compound, how does the Potency read?
A: The Potency was inconclusive [inhibitor, single point].

Q: For `CN(/N=C/c1cc(Br)cc(Br)c1O)c1ccccc1`, which “activity change, negative = inhibition” value is on record?
A: Its value is inactive: 15.8%.

Q: Which Potency does the source give for `O=C(Nc1nc2cc3c(cc2s1)OCCO3)c1ccco1` here?
A: The Potency was inconclusive [inhibitor, partial curve, poor fit].

Q: Which Potency does the source give for `CC(NC(=O)CCCCCNC(=O)N1CCn2c1nc1ccccc12)c1ccccc1` (configuration not stated) here?
A: The Potency was inconclusive [inhibitor, full curve].

Q: With `Cc1cccnc1NC(=S)Nc1ccc(Cl)c(Cl)c1` as the compound, how does the Potency read?
A: The Potency was inconclusive [inhibitor, single point].

Q: `CCCCCCCCCCOC(=O)Cn1c(COc2ccc(Cl)cc2)[n+](C)c2ccccc21` was tested. Which Potency did it give?
A: The Potency was inconclusive [inhibitor, partial curve, poor fit].

Q: Which Potency does the source give for `COc1cc(C(=O)NCCC(c2ccccc2)c2ccccc2)cc(OC)c1OC` here?
A: Its Potency is inconclusive [inhibitor, partial curve, poor fit].

Q: For `CN(C)CCN(Cc1ccco1)C(=O)c1oc2ccccc2c1NC(=O)c1ccccc1`, which Potency is on record?
A: Its Potency is inconclusive [inhibitor, single point].

Q: With `COc1ccc(N2CCN(c3ncnc4scc(-c5ccc(C)cc5)c34)CC2)cc1` as the compound, how does the Potency read?
A: Its Potency is active: 2 µM.

Q: For `C=CCn1c(COc2ccc(Cl)cc2)nnc1SCC(=O)N/N=C/c1cccc(O)c1`, which Potency is on record?
A: Its Potency is inconclusive [inhibitor, partial curve, poor fit].

Q: With `Cc1ccc(OCC(=O)c2cc(C)n(Cc3ccco3)c2C)c([N+](=O)[O-])n1` as the compound, how does the Potency read?
A: Its Potency is inconclusive [inhibitor, single point].

Q: `Cc1cc(=O)[nH]c2c1c(C)nn2C(C)(C)C` was tested. Which “activity change, negative = inhibition” value did it give?
A: Its value is inactive: 19.3%.

Q: `CC1=C(C(=O)Nc2ccccc2)C(c2cccs2)n2nc(SCc3ccccc3F)nc2N1` (configuration not stated) was tested. Which “activity change, negative = inhibition” value did it give?
A: The value was inactive: 19.7%.

Q: How did the Potency turn out when `C=CCN=C1NN=C(c2cc(C)n(CC=C)c2C)CS1` was run?
A: Its Potency is inconclusive [inhibitor, partial curve, poor fit].

Q: With `Clc1ccc(-n2nnnc2Sc2ncnc3sccc23)cc1` as the compound, how does the Potency read?
A: The Potency was active: 7.94 µM.

Q: How did the Potency turn out when `CC(=O)c1c(N2CCN(C)CC2)[nH]c(-c2ccccc2)nc1=S` was run?
A: Its Potency is inconclusive [inhibitor, single point].

Q: With `Cc1ccc(N=C(NOC(=O)c2ccccc2)c2nonc2N)c(C)c1` as the compound, how does the Potency read?
A: The Potency was inconclusive [inhibitor, full curve, poor fit].

Q: Which “activity change, negative = inhibition” value does the source give for `Cc1ccccc1C(=O)OCc1cc(=O)n2nc(-c3cccs3)sc2n1` here?
A: Its value is inactive: 2.63%.

Q: Which Potency does the source give for `CC(C)Oc1ccc(F)cc1-c1cc(C(=O)N2CCc3ccccc3C2)[nH]n1` here?
A: Its Potency is inconclusive [inhibitor, single point].

Q: Which Potency does the source give for `CCOC(=O)C(=NC1CCS(=O)(=O)C1)NNc1ccc(Br)cc1` (configuration not stated) here?
A: The Potency was inconclusive [inhibitor, full curve, poor fit].

Q: How did the Potency turn out when `C=C(C)CNC(=S)N/N=C/c1c(F)cccc1F` was run?
A: Its Potency is inconclusive [inhibitor, partial curve, poor fit].

Q: For `COc1cc(CC(NC(C)=O)C(=O)NC2CCN(c3nc(C)cc(C)c3C#N)CC2)cc(OC)c1` (configuration not stated), which “activity change, negative = inhibition” value is on record?
A: The value was inactive: 0.721%.

Q: `C[C@@H](CSc1ccc(Br)cc1)CN1CC[C@H](C(C)(C)C)CCC1=O` was tested. Which Potency did it give?
A: Its Potency is inconclusive [inhibitor, partial curve, poor fit].

Q: How did the Potency turn out when `CCc1ccc(N2C(=O)C3C4C=CC(CC4)C3C2=O)cc1` (configuration not stated) was run?
A: The Potency was inconclusive [inhibitor, full curve].

Q: With `CCN(CC)C(=O)[C@H]1C[C@H](CC(=O)NCCc2ccccn2)C(=O)N2CCc3c([nH]c4ccc(Cl)cc34)[C@]12C` as the compound, how does the Potency read?
A: Its Potency is inconclusive [inhibitor, single point].

Q: With `COC(=O)c1c(Cc2ccccc2Cl)c[nH]c1C` as the compound, how does the Potency read?
A: Its Potency is inconclusive [inhibitor, partial curve, poor fit].

Q: Which “activity change, negative = inhibition” value does the source give for `COc1cccc(CCNC(=O)c2c(O)nc3ccccn3c2=O)c1` here?
A: The value was inactive: -7.95%.

Q: Which Potency does the source give for `CCOc1ccc(NC(=O)CN2CCN(CC(=O)Nc3cc(OC)cc(OC)c3)CC2)cc1` here?
A: The Potency was inconclusive [inhibitor, partial curve].

Q: With `CCN(CC(=O)Nc1cc(Cl)ccc1C)c1ncnc2sc(C)c(C)c12` as the compound, how does the Potency read?
A: The Potency was inconclusive [inhibitor, partial curve, poor fit].

Q: With `COc1ccc(O)c(C(=O)c2cnn(-c3ccccc3)c2)c1` as the compound, how does the Potency read?
A: Its Potency is inconclusive [inhibitor, single point].

Q: With `CSc1nc2ccccc2cc1/C=C(\C#N)c1cccc(Cl)c1` as the compound, how does the Potency read?
A: The Potency was inconclusive [inhibitor, partial curve, poor fit].

Q: How did the Potency turn out when `N#Cc1cccc(OCCCN2CCC(C(O)(c3ccccc3)c3ccccc3)CC2)c1` was run?
A: Its Potency is inconclusive [inhibitor, single point].

Q: With `Cc1cc(C)c(C)c(S(=O)(=O)N2CCC(C(=O)NNC(=O)c3ccccc3O)CC2)c1C` as the compound, how does the Potency read?
A: Its Potency is inconclusive [inhibitor, partial curve, poor fit].

Q: For `O=C(NC1CCN(Cc2ccccc2)CC1)C1CCN(S(=O)(=O)c2ccccc2)CC1`, which Potency is on record?
A: The Potency was inconclusive [inhibitor, full curve].

Q: Which Potency does the source give for `NC(=S)NN=C1c2ccccc2-c2ccccc21` here?
A: Its Potency is inconclusive [inhibitor, full curve, poor fit].

Q: With `CC(C#Cc1ccc2c(c1)COc1c3ccccc3nn1-2)OC(C)(C)C` (configuration not stated) as the compound, how does the “activity change, negative = inhibition” value read?
A: Its value is inactive: 20.4%.

Q: `COC(=O)[C@@]1(Sc2ccc(C)cc2)CC(=O)N[C@@H]1c1ccc(C(F)(F)F)cc1` was tested. Which Potency did it give?
A: Its Potency is inconclusive [inhibitor, partial curve, poor fit].

Q: Which Potency does the source give for `COCCNC(=O)C1Cc2c(-c3ccc(NC(C)=O)cc3)ccnc2O1` (configuration not stated) here?
A: The Potency was inconclusive [inhibitor, partial curve].

Q: How did the Potency turn out when `O=C(NCCc1ccccc1)c1cc(-c2ccccc2)c(N2CCOCC2)s1` was run?
A: Its Potency is inconclusive [inhibitor, full curve, poor fit].

Q: With `Cc1cccc(-c2nc3c(c(SCC(=O)N4CCOCC4)n2)CCCC3)c1` as the compound, how does the Potency read?
A: The Potency was inconclusive [inhibitor, partial curve].

Q: `O=C(CCNC(=O)c1ccc(Br)o1)NCc1ccc(Cl)cc1` was tested. Which Potency did it give?
A: Its Potency is inconclusive [inhibitor, single point].

Q: How did the Potency turn out when `CC(C)C1Cc2[nH]c(=S)[nH]c(=O)c2C(c2ccc(Cl)cc2)O1` (configuration not stated) was run?
A: Its Potency is inconclusive [inhibitor, single point].

Q: `CCc1ccc2[nH]c(=O)c(CN(CCN(C)C)C(=O)Nc3ccccc3OC)cc2c1` was tested. Which Potency did it give?
A: Its Potency is inconclusive [inhibitor, partial curve, poor fit].

Q: How did the activity change, negative = inhibition turn out when `CCOC(=O)C(C)Sc1nnc(NC(=O)c2ccc3c(c2)OCO3)s1` (configuration not stated) was run?
A: Its activity change, negative = inhibition is inactive: 15.1% [at 7.66 µM].

Q: `Cc1ccc(OCC(=O)N(Cc2ccco2)Cc2ccc(C)o2)cc1` was tested. Which Potency did it give?
A: Its Potency is inconclusive [inhibitor, single point].

Q: How did the Potency turn out when `CCN(C(=O)c1cccc(F)c1)c1ccccc1C` was run?
A: Its Potency is inconclusive [inhibitor, single point].

Q: For `CN1CCN(C(=O)c2cc3c(c(-c4cccc(-c5cc6ccccc6o5)c4)n2)[C@H](CCO)N(S(=O)C(C)(C)C)C3)CC1` (some centres not stated), which “activity change, negative = inhibition” value is on record?
A: Its value is inactive: -1.86%.

Q: For `O=C(c1ccc2ccccc2c1)C1CCCN(S(=O)(=O)c2cccnc2)C1` (configuration not stated), which Potency is on record?
A: The Potency was inconclusive [inhibitor, partial curve, poor fit].

Q: With `Cc1ccc2cccc(OCC(=O)Nc3cccc(S(=O)(=O)N4CCCC4)c3)c2n1` as the compound, how does the Potency read?
A: The Potency was inconclusive [inhibitor, single point].

Q: `COCCNC(=O)c1ccc2c(c1)N(Cc1ccc(C(F)(F)F)cc1)C(=O)c1ccccc1S2` was tested. Which Potency did it give?
A: The Potency was inconclusive [inhibitor, partial curve, poor fit].

Q: Which Potency does the source give for `CSc1ccc(C(=O)N2CCc3ccc(NC(=O)c4ccccn4)cc3C2)cc1` here?
A: Its Potency is inconclusive [inhibitor, partial curve, poor fit].

Q: Which “activity change, negative = inhibition” value does the source give for `O=C(CSC1=NS(=O)(=O)c2ccccc21)Nc1ccccc1` here?
A: The value was inactive: 10.6%.

Q: With `CCOC(=O)c1c(NC(=O)CSc2nncs2)sc(C)c1-c1ccccc1` as the compound, how does the Potency read?
A: Its Potency is inconclusive [inhibitor, single point].

Q: Which “activity change, negative = inhibition” value does the source give for `CCN(CC(=O)NCc1cccs1)C(=O)c1ccc(S(=O)(=O)N(C)c2ccccc2)cc1` here?
A: Its value is inactive: -12.1%.

Q: How did the Potency turn out when `CC(C)COc1cccc(C(=O)N(CC(=O)Nc2ccccc2C(F)(F)F)Cc2ccco2)c1` was run?
A: Its Potency is inconclusive [inhibitor, partial curve, poor fit].

Q: How did the “activity change, negative = inhibition” value turn out when `O=C1Nc2ccccc2-n2nnnc2C1N1CCN(C(=O)c2ccco2)CC1` (configuration not stated) was run?
A: Its value is inactive: -9.18%.

Q: Which Potency does the source give for `CCCCCOC(=O)C1=C(C)NC(=O)NC1c1ccc([N+](=O)[O-])cc1` (configuration not stated) here?
A: The Potency was inconclusive [inhibitor, single point].

Q: Which Potency does the source give for `Cc1ccc(-c2nc(-c3cccnc3)sc2CC(=O)Nc2ccc3nc(C)sc3c2)cc1` here?
A: Its Potency is inconclusive [inhibitor, full curve, poor fit].

Q: Which Potency does the source give for `Cc1ccc(C)c(OCC(=O)Nc2nonc2NC(=O)COc2cc(C)ccc2C)c1` here?
A: The Potency was inconclusive [inhibitor, partial curve, poor fit].
